Literature values, collected in PMC11006913.
This is one part of the list.

Target: T1, PBX4 R215Q (Homo sapiens) (UniProt Q9BYU1)
T1 sequence: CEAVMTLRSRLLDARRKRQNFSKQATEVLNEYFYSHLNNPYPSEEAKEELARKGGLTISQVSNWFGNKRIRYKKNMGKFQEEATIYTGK
Settings: PBM; conditions not shown; double strand, one strand shown; scale: upbm affinity estimate (log intensity, higher = more binding, comparable within an allelic series)

Row | Sequence | binding signal
1 | ACTTCTTC [8-mer ACTTCTTC] | 9.96
2 | ACATCAAA [8-mer ACATCAAA] | 10.2
3 | GTCATCAA [8-mer GTCATCAA] | 10.2
4 | AACTGGTC [8-mer AACTGGTC] | 9.87
5 | GTATCGGA [8-mer GTATCGGA] | 9.98
6 | AATTCGTG [8-mer AATTCGTG] | 9.94
7 | ACTCGTCA [8-mer ACTCGTCA] | 10.3
8 | ACTGGCTC [8-mer ACTGGCTC] | 9.85
9 | GCGCTCTA [8-mer GCGCTCTA] | 9.84
10 | CGGCCGAG [8-mer CGGCCGAG] | 9.69
11 | GCACCAAC [8-mer GCACCAAC] | 9.85
12 | TCATGTCA [8-mer TCATGTCA] | 10.2
13 | TATGTCAA [8-mer TATGTCAA] | 10.2
14 | GCGTCTGA [8-mer GCGTCTGA] | 9.83
15 | AGTTGACG [8-mer AGTTGACG] | 10.1
16 | CTGCGAAG [8-mer CTGCGAAG] | 9.74
17 | GTTGACGA [8-mer GTTGACGA] | 10.1
18 | ACGTCAAT [8-mer ACGTCAAT] | 10.2
19 | CGACTGAA [8-mer CGACTGAA] | 9.77
20 | AACCTCGG [8-mer AACCTCGG] | 9.85
21 | CCCAGGTA [8-mer CCCAGGTA] | 9.95
22 | ACTTGGCC [8-mer ACTTGGCC] | 9.8
23 | ATGTCACA [8-mer ATGTCACA] | 10.1
24 | GCACGCAA [8-mer GCACGCAA] | 9.74
25 | CACATCAA [8-mer CACATCAA] | 10.2
26 | CGGTGTGC [8-mer CGGTGTGC] | 9.73
27 | ATTCGTCA [8-mer ATTCGTCA] | 10.2
28 | CCGTCAAA [8-mer CCGTCAAA] | 10.1
